In PubChem BioAssay AID1631 (National Center for Advancing Translational Sciences (NCATS), 2009):
Hit rate of the full screen: of about 260,000 compounds, about 890 (0.34%) were called active. This list was built around the results that the source calls inconclusive (neither active nor inactive); the mix of calls is not that of the screen. Calls follow the shape of the dose curve; as a rule, active = well fitted activation curve with a large enough effect; inconclusive = small, poorly fitted or top-dose-only effect; inactive = no such curve, though single readings can be large or run the other way. No potency is given beside an inconclusive call; the fits are too rough.

Molecular target: Pyruvate kinase PKM (Homo sapiens) (UniProt P14618)
Chain of UniProt P14618 (P14618 whole entry, looked up, canonical isoform): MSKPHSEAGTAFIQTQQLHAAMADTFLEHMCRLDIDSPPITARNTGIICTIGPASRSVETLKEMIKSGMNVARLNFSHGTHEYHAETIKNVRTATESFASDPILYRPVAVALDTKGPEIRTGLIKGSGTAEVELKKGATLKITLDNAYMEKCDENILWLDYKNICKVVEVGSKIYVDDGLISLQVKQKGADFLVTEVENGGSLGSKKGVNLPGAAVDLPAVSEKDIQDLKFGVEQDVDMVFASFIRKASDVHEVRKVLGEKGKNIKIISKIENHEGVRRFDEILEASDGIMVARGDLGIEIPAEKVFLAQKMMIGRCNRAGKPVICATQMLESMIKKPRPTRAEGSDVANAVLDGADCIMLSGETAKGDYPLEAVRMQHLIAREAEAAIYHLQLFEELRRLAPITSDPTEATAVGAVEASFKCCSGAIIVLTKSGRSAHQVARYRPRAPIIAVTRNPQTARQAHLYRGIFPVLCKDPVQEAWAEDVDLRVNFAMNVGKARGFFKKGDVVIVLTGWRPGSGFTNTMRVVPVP
Assay: qHTS Assay for Activators of Human Muscle isoform 2 Pyruvate Kinase; also: nearly all actives have a fitted effect of over 55% in size
Details: purified PKM2, Kinase-Glo ATP luminescence; Potency: activation; activation: at 57.5 µM (top of the series), 0% is enzyme alone, no compound
Summary of the method: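 hPK-M2, >95% pure; 0.1 mM ADP / 0.5 mM PEP final; imidazole pH7.2 buffer w/ 7 mM MgCl2, 50 mM KCl; 1 h RT; Kinase-Glo lum. Intermediate enzyme activity for dual inhibitor/activator qHTS.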
Potency is read from the fitted curve at half-maximal effect; tags tell the direction and shape of the fitted curve.

Compound | Potency
COc1ccccc1CNC(=O)COC(=O)c1ccc(S(=O)(=O)N2CCCC2)cc1 | inconclusive [rising, partial curve]
CCCC(=O)N(c1ccc2oc(=O)sc2c1)S(=O)(=O)c1cccs1 | inconclusive [rising, partial curve]
COc1ccc2cc(CN(CCCN3CCOCC3)Cc3nnnn3C3CCCC3)c(=O)[nH]c2c1 | inconclusive [rising, single point]
Cc1onc(-c2c(Cl)cccc2Cl)c1C(N)=S | inactive
COc1ccc(S(=O)(=O)N2CCC(C(=O)NCc3ccco3)CC2)cc1 | inconclusive [rising, partial curve]
O=C(NCc1ccc2c(c1)OCO2)C1CCN(S(=O)(=O)c2ccc(Br)s2)CC1 | inconclusive [rising, partial curve]
Cc1[nH]c2ccccc2c1NC(=O)CN1CCN(C(=O)c2ccco2)CC1 | inconclusive [rising, partial curve, poor fit]
Cc1ccc(NC(=O)c2sc(N)nc2-c2ccccc2)cc1C | inconclusive [rising, single point]
COc1cccc(CNc2nc3ccccc3n2C(C)C)c1O | inconclusive [rising, partial curve]
O=C1/C(=C/c2ccc(Cl)cc2)NC(=S)N1Cc1cccnc1 | inconclusive [rising, full curve]
O=C(Cn1nc(Cl)nc1Cl)c1ccccc1 | inactive
COC(=O)c1ccc(COc2ccc(/C=N/O)cc2OC)o1 | inconclusive [rising, partial curve]
COc1cc(S(N)(=O)=O)c(OC)cc1N | inconclusive [rising, single point]
CCOC(=O)c1nnn2c1nc(N1CCCCC1)c1ccccc12 | inconclusive [rising, full curve]
CN1CC(=O)N(CC(=O)Nc2ccc(N(C)C)cc2)c2ccccc2C1=O | inconclusive [rising, single point]
CC(=O)c1ccn(S(=O)(=O)c2ccccc2)c1 | inconclusive [rising, partial curve, poor fit]
O=C(OCc1ccc(Cl)cc1Cl)c1cccnc1Cl | inconclusive [rising, partial curve]
CCNS(=O)(=O)c1ccc(NC(=O)c2ccc(Cn3cc(Br)cn3)o2)cc1 | active: 5.01 µM
O=C(CCCc1nc2ccccc2s1)N1CCN(S(=O)(=O)c2cccs2)CC1 | active: 4.47 µM
N#CCCn1c(SCC(=O)N2CCN(S(=O)(=O)c3ccccc3)CC2)nc2ccccc21 | inconclusive [rising, single point]
O=C(c1cccs1)N(Cc1ccco1)Cc1cc2ccccc2[nH]c1=O | active: 22.4 µM
O=C(CSc1n[nH]c(=O)n1Cc1ccco1)N1CCOCC1 | inconclusive [rising, single point]
COC(=O)N/N=C/c1ccc(-c2cccc(Cl)c2)o1 | inactive
COC(=O)c1nc(N)sc1-c1ccc(Cl)cc1 | inconclusive [rising, single point]
Cc1ccc(CNC(=O)[C@H](C)[C@H]2C[C@]2(C)[C@H](NC(=O)OCc2ccccc2)c2ccccc2)o1 | inconclusive [rising, partial curve]

Compound | Potency
COc1cc2c(ccc3cc(OC)c(OC)c(O)c32)cc1O | inconclusive [rising, partial curve]
Cc1[nH]c2ccccc2c1C(=O)COC(=O)c1ccc([N+](=O)[O-])s1 | inconclusive [rising, single point]
COc1cc(/C=N/NC(=O)CCN2CCN(c3ccccc3)CC2)cc(OC)c1OC | inactive
Cc1occc1C(=O)Nc1ccc2c(c1)OCCO2 | inactive
CN1CCc2cccc3c2[C@@H]1Cc1ccc(O)c(O)c1-3 | inconclusive [rising, full curve]
CC1(c2nnc(-c3ccc(Cl)cc3)o2)CC(c2ccncc2)=NO1 (stereo not drawn) | inconclusive [rising, single point]
Cc1nnc(SCC(=O)Nc2cccc(C(F)(F)F)c2)n1Cc1ccco1 | inconclusive [rising, single point]
Cc1ccc(Cn2cccc(NS(C)(=O)=O)c2=O)cc1 | inconclusive [rising, partial curve]
Cc1ccccc1NC1c2ccccc2C(=O)N1Cc1ccco1 (stereo not drawn) | inactive
COc1ccc(Cn2cnc([N+](=O)[O-])c2)cc1[N+](=O)[O-] | inconclusive [rising, partial curve]
Fc1ccc(NC(=S)Nc2ccccc2OC(F)F)cc1Cl | inactive
CCc1cccc(OCC(=O)Nc2ccc(S(=O)(=O)Nc3ccccn3)cc2)c1 | inconclusive [rising, single point]
CS(=O)(=O)N1CCN(c2ccc(NC(=O)c3cccnc3Cl)cc2)CC1 | inactive
Cc1ccsc1C(=O)N(CC(C)C)c1c(N)n(Cc2ccccc2)c(=O)[nH]c1=O | inactive
COc1cc(OC)c(NC(=O)CCNS(=O)(=O)c2ccc3c(c2)oc(=O)n3C)cc1Cl | inconclusive [rising, single point]
CCCC[C@@H]1C[C@H]1C(NC(=O)c1ccco1)c1ccc(-c2ccccc2)cc1 (stereo partly drawn) | inactive
COCCN=C1Sc2nc3c(C)cccc3cc2CN1Cc1ccco1 | inconclusive [rising, partial curve]
N#Cc1ccccc1NC(=S)NC(=O)c1cccs1 | inactive
Cc1ccc(S(=O)(=O)N(C)CC(=O)N/N=C/c2ccc(C)o2)cc1 | inconclusive [rising, partial curve]
Cc1cc(C)c(S(=O)(=O)Nc2cc(SCC(=O)O)c(O)c3ccccc23)cc1C | inconclusive [rising, full curve, poor fit]
CCOC(=O)c1sc2nc(CSc3nc4ccccc4n3CC)[nH]c(=O)c2c1C | inconclusive [rising, single point]
N=c1c2c(n(Cc3ccc(F)cc3)c3c1CCC3)CCCC2 | inactive
O=C(Cc1cccs1)NCc1cccs1 | inactive
COc1ccc(C2=NOC(C(=O)Nc3cc(C)on3)C2)cc1OC (stereo not drawn) | active: 3.55 µM
NC(=O)C1CCN(C(=S)c2ccc(-c3ccc(Br)cc3)o2)CC1 | inactive

Compound | Potency
CC(=O)N1CCN(c2ccc(NC(=O)c3ccc(Br)o3)cc2Cl)CC1 | inconclusive [rising, single point]
O=C(N/N=C/c1ccc(-c2cccc([N+](=O)[O-])c2)o1)c1ccc([N+](=O)[O-])cc1 | inactive
Cc1ccc(CNC(=O)C2(CC(C)C)C=CCN2C(=O)c2ccccc2)o1 (stereo not drawn) | inconclusive [rising, partial curve]
Cn1cccc1/C=N/N1CCN(Cc2cccc3ccccc23)CC1 | inconclusive [rising, single point]
COc1ccc(S(=O)(=O)N2CCC(C(=O)NCc3cccc(OC)c3)CC2)cc1 | active: 1.58 µM
Cc1cc(C)nc(SCc2cc(=O)c(OC(=O)c3ccc(S(=O)(=O)N4CCCC4)cc3)co2)n1 | inconclusive [rising, single point]
Fc1ccc2nc(Nc3nc4c(F)cc(F)cc4s3)sc2c1 | inactive
O=C(NC1CC1)C1=C[C@@H](c2csc3ccccc23)C[C@@H](OCc2ccc(CO)cc2)O1 | inconclusive [rising, partial curve]
CC1CC(C)CN(C(=O)c2cccc(S(=O)(=O)Nc3cc(C(F)(F)F)ccc3Cl)c2)C1 (stereo not drawn) | inactive
Clc1ccccc1CONc1ncnc2nonc12 | active: 15.8 µM
O=C(NCCN1C(=O)S/C(=C\c2cccnc2)C1=O)C1=NN(c2ccccc2)C(=O)CC1 | inconclusive [rising, single point]
OC(C#Cc1ccccn1)c1cccs1 (stereo not drawn) | inconclusive [rising, full curve]
O=C(/C=C/c1ccc([N+](=O)[O-])cc1)NCCc1ccc(F)cc1 | inconclusive [rising, partial curve]
COc1ccc2[nH]c(=O)c(CN(CCO)C(=O)c3cccs3)cc2c1 | inconclusive [rising, single point]
Nc1nnnn1CC(=O)N/N=C/c1ccccn1 | inactive
CCOC(=O)c1sc(NC(=O)OC)c(C(=O)OC)c1C | inconclusive [rising, single point]
COc1cc(NC(=O)CCc2nc(-c3cccs3)no2)cc(OC)c1OC | inconclusive [rising, partial curve]
N#C/C(=C(/O)c1ccccc1F)c1nc2cc(C(F)(F)F)ccc2s1 | inactive
CCOC(=O)C1=C(C)N=c2s/c(=C\c3cccn3C)c(=O)n2C1c1cccc(OC)c1OC (stereo not drawn) | inactive
COc1ccc(N2CCN(CC(=O)Nc3cc(C)on3)CC2)cc1 | inactive
O=C(NC1CC1)C1CCN(C2CCN(C(=O)Cc3ccc(F)cc3)CC2)CC1 | inconclusive [rising, single point]
Cc1ccc(N2C(=O)CC(Sc3ccccc3C(=O)O)C2=O)c([N+](=O)[O-])c1 (stereo not drawn) | inconclusive [rising, partial curve]
COc1ccccc1C(=O)NCCn1cc(SCC(=O)Nc2cc(C)on2)c2ccccc21 | inconclusive [rising, partial curve]
